# From PubChem BioAssay AID686978 (National Center for Advancing Translational Sciences (NCATS), 2013)
# Hit rate of the full screen: of about 420,000 compounds, about 64,000 (15%) were called active. The inconclusive results got no clear call from the source; some entries with a clear call stand among them for comparison. Calls follow the shape of the dose curve; as a rule, active = well fitted inhibition curve with a large enough effect; inconclusive = small, poorly fitted or top-dose-only effect; inactive = flat fitted curve, though single readings scatter. Potencies of inconclusive entries are left out as doubtful fits.
# Assay: qHTS for Inhibitors of human tyrosyl-DNA phosphodiesterase 1 (TDP1): qHTS in cells in absence of CPT; also: nearly all actives have a fitted effect of over 55% in size
# Settings: DT40 Tdp1-/- hTDP1 cells, no CPT, ATP luminescence, 48 h; activity change, negative = growth inhibition: at 46.2 µM (top of the series) unless noted
# Procedure, shortened: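 Camptothecin absent (DMSO only). Human TDP1-complemented DT40 knockout cells, 400 cells/well, 37 °C for minimum 48 hr; ATP measured via CellTiter-Glo, 30 min dark incubation, luminescence.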
# % is scaled to controls: 0 for no effect and ±100 for the full control effect; potency is read from the fitted curve at half-maximal effect; tags tell the direction and shape of the fitted curve.
Structure (SMILES),Potency,"activity change, negative = growth inhibition"
COc1ccc(C(=O)Nc2cc3c4c(c2)CC(=O)N4CCC3)c(OC)c1,"inconclusive [inhibitor, single point]",
CCOc1ccc(N=Nc2c(C)[nH]n(-c3ccccc3)c2=O)cc1,inactive,
O=C(CN1CCN(c2ccc(Cl)cc2[N+](=O)[O-])CC1)N1CCOCC1,inactive,
CCCCC(O)(c1ccccc1)C(CN1CCOCC1)c1ccccc1 (stereo unspecified),"inconclusive [inhibitor, partial curve]",
c1ccc2c(N3CCCCC3)nc(N3CCCCC3)nc2c1,"inconclusive [inhibitor, single point]",
O=C(CNS(=O)(=O)c1ccc(Br)cc1Cl)OCC(=O)c1ccc[nH]1,inactive,
CCC(=O)n1nc(NCc2ccc(OC)c(OC)c2)nc1NCc1ccc(OC)c(OC)c1,"inconclusive [inhibitor, single point]",
CCOc1ccc(S(=O)(=O)N2CCCC(C(=O)NCC3CCCO3)C2)cc1Cl (stereo unspecified),"inconclusive [inhibitor, single point]",
O=C(/C=C/c1ccco1)N1CCN(S(=O)(=O)/C=C/c2ccccc2)CC1,"inconclusive [inhibitor, single point]",
CCOc1ccccc1C(=O)Nc1ccccc1O,"inconclusive [inhibitor, partial curve]",
Cc1ccc(-c2noc(-c3ccccc3NC(=O)C3CC(=O)N(c4ccc(C)cc4)C3)n2)cc1 (stereo unspecified),inactive,
COc1cc2ncnc(Nc3ccc4c(c3)OCO4)c2cc1OC,inactive,
COc1ccc(NS(=O)(=O)c2cccc(-c3nnc(-c4ccccc4)o3)c2)cc1,"inconclusive [inhibitor, partial curve]",
Fc1ccc(Nc2ccc(-c3ccc(F)cc3)nn2)cc1,"inconclusive [inhibitor, single point]",
O=C(Nc1ccc(Nc2ccccc2)cc1)c1ccc(F)cc1,active: 20.6 µM,
COC(=O)c1sc(-c2ccccc2)cc1NC(=O)Nc1ccc(Cl)cc1,"inconclusive [inhibitor, single point]",
Cn1c(=O)c2c(nc(CN3CCN(c4ccccc4)CC3)n2Cc2c(F)cccc2Cl)n(C)c1=O,active: 8.2 µM,
COc1cc(C2N(c3ccc(F)cc3)C(=O)C3CCCN32)cc(OC)c1OC (stereo unspecified),inactive,
CC1CCN(CC(O)COc2ccc(OCC(O)CN3CCC(C)CC3)cc2)CC1 (stereo unspecified),"inconclusive [inhibitor, single point]",
COc1ccccc1CNC(=O)c1cc2sccc2n1C,inactive,
CC1Cc2ccccc2N1C(=O)COc1nc2ccccc2nc1N1CCOCC1 (stereo unspecified),active: 9.2 µM,
CN1/C(=C\C(=O)C[n+]2cccc(C(N)=O)c2)C(C)(C)c2ccccc21,inactive,
Cc1ccc(NC(=O)c2ccc(NC(=O)c3ccccc3)cc2)cc1C,"inconclusive [inhibitor, single point]",

Structure (SMILES),Potency,"activity change, negative = growth inhibition"
CCc1nc2ccc(C(=O)NC3CCN(Cc4ccccc4)CC3)cn2c1N(CC)CCOC,"inconclusive [inhibitor, single point]",
COc1ccc(C2C3=C(CCCC3=O)Nc3nc(SCc4ccccc4)nn32)cc1OC (stereo unspecified),,inconclusive: -35.5% [inhibitor]
Cn1c(SCC(=O)NCCc2ccccc2)ncc(C(=O)Nc2ccccc2)c1=O,active: 13 µM,
N#CCCn1c(=O)c(-c2cc(F)cc(F)c2)nc2cnc(Oc3cccc(Cl)c3)nc21,"inconclusive [inhibitor, single point]",
O=C(COc1ccccc1O)Nc1ccccc1Cl,inactive,
COc1cccc(Cc2nc3ccccc3nc2SCC(=O)NCc2ccc(C)cc2)c1,"inconclusive [inhibitor, single point]",
Cc1cccc(NC(=O)Cn2c(=O)ccc3cc(S(=O)(=O)N4CCCC4)ccc32)c1C,active: 16.4 µM,
CC(=O)Nc1ccc(NC(=O)C(C)OC(=O)c2ccccc2Sc2ccccc2C#N)cc1 (stereo unspecified),"inconclusive [inhibitor, partial curve, poor fit]",
COC(=O)c1cc(-c2ccc(S(=O)(=O)N3CCCC3)cc2)c(C(F)(F)F)s1,"inconclusive [inhibitor, single point]",
CCOc1ccc(NS(=O)(=O)c2ccc(NC(=S)NC(=O)C(C)C)cc2)cc1,"inconclusive [inhibitor, single point]",
COc1ccc(C)cc1N/C(N)=N/c1nc(C)cc(C)n1,active: 16.4 µM,
CC(C)N(Cc1nc(-c2ccc(Cl)cc2)no1)C(=O)/C=C/c1ccccc1,"inconclusive [inhibitor, single point]",
O=C(O)c1cccnc1SCC(=O)N1CCCc2ccccc21,inactive,
COc1ccc(CCNC(=O)c2ccc3c(c2)nc2n3CCC(C)C2)cc1OC (stereo unspecified),"inconclusive [inhibitor, single point]",
NS(=O)(=O)c1cccc(NC(=O)c2ccc(S(=O)(=O)N3CCCCCC3)cc2)c1,"inconclusive [inhibitor, single point]",
COc1ccc(C(=O)NCCc2nnc(SCc3nc4ccccc4c(=O)[nH]3)n2C)cc1,inactive,
O=C(COc1ccc([N+](=O)[O-])cc1)Nc1ccc2c(c1)CCC2,"inconclusive [inhibitor, single point]",
C/C(=N\Nc1ccc(Cl)c(C(=O)O)c1)c1ccc(Br)s1,inactive,
CCOC(=O)CN1C(=O)S/C(=C/c2ccc(OC)c([N+](=O)[O-])c2)C1=O,"inconclusive [inhibitor, single point]",
O=C(N/N=C\c1ccc([N+](=O)[O-])s1)c1cncc(Br)c1,active: 3.26 µM,
CC(C)(C)NC(=O)NC(=O)COC(=O)c1cccc(NS(=O)(=O)c2ccc(F)c(F)c2)c1,"inconclusive [inhibitor, single point]",
COc1ccc(C(=O)C(C)Sc2nnc(C3CC3)n2C2CC2)cc1 (stereo unspecified),inactive,
O=C(N[C@@H]1CC[C@@H](CCNC(=O)C2CCOCC2)O[C@@H]1CO)c1ccncc1,inactive,
